Two substances from the supplement of paper PMC11316812 can be followed below.

The subject of one data set is MCF7. The data set is described as follows: percentage of EdU-negative (G0-arrested) nuclei per well, 72 h; reference: the tested protein was the secreted form or ectodomain; higher = more G0 arrest.
For the next data set, the system named is hTERT-HMEC. The data set is described as follows: percentage of EdU-negative (G0-arrested) nuclei per well, 72 h; higher = more G0 arrest. As to conditions: reference: the tested protein was the secreted form or ectodomain.
[1] abbreviates: protein concentration 0.0158725 µM.
Where [2] appears, read: protein concentration 0.158725 µM.
Where [3] appears, read: protein concentration 0.0151429 µM.
[4] abbreviates: protein concentration 0.151429 µM.

± gives the standard deviation of the averaged measurements.
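Further: secreted proteins added to cultured cells, EdU pulse at the end, nuclei found by Hoechst imaging, EdU status from nuclear versus surrounding ring intensity ratio, PBS as neutral control.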

Regarding “MGPGVLLLLLVATAWHGQG[about 500 residues not written out]VVVACMSIMALLLLLLLLLLYKYKQKPKYQVRWKIIESYEGNSYTFIDPTQLPYNEKWEFPRNNLQFGKTLGAGAFGKVVEATAFGLGKEDAVLKVAVKMLKSTAHADEKEALMSELKIMSHLGQHENIVNLLGACTHGGPVLVITEYCCYGDLLNFLRRKAEAMLGPSLSPGQDPEGGVDYKNIHLEKKYVRRDSGFSSQGVDTYVEMRPVSTSSNDSFSEQDLDKEDGRPLELRDLLHFSSQVAQGMAFLASKNCIHRDVAARNVLLTNGHVAKIGDFGLARDIMNDSNYIVKGNARLPVKWMAPESIFDCVYTVQSDVWSYGILLWEIFSLGLNPYPGILVNSKFYKLVKDGYQMAQPAFAPKNIYSIMQACWALEPTHRPTFQQICSFLQEQAQEDRRERDYTNLPSSSRSGGSGSSSSELEEESSSEHLTCCEQGDIAQPLLQPNNYQFC [[…]]”, the “percentage of EdU-negative” value is 26 ± 0.85% in the data set with MCF7 (setting [1]), 28.9 ± 1.2% in the data set with MCF7 (setting [2]), 5.93 ± 0.54% in the data set with hTERT-HMEC (setting [1]) and 6.01 ± 0.39% in the data set with hTERT-HMEC (setting [2]).
As to “MDKFWWHAAWGLCLVPLSLA[about 200 residues not written out]ATTLMSTSATATETATKRQETWDWFSWLFLPSESKNHLHTTTQMAGTSSNTISAGWEPNEENEDERDRHLSFSGSGIDDDEDFISSTISTTPRAFDHTKQNQDWTQWNPSHSNPEVLLQTTTRMTDVDRNGTTAYEGNWNPEAHPPLIHHEHHEEEETPHSTSTIQATPSSTTEETATQKEQWFGNRWHEGYRQTPKEDSHSTTGTAAASAHTSHPMQGRTTPSPEDSSWTDFFNPISHPMGRGHQAGRRMDMDSSHSITLQPTANPNTGLVEDLDRTGPLSMTTQQSNSQSFSTSHEGLEEDKDHPTTSTLTSSNRNDVTGGRRDPNHSEGSTTLLEGYTSHYPHTKESRTFIPVTSAKTGSFGVTAVTVGDSNSNVNRSLSGDQDTFHPSGGSHTTHGSESDGHSHGSQEGGANTTSGPIRTPQIPEWLIILASLLALALILAVCIAVNSRRRCGQKKKLVINSGNGAVEDRKPSGLNGEASKSQEMVHLVNKESSETPDQFMTADETRNLQNVDMKIGV [[…]]”, the “percentage of EdU-negative” value with MCF7 (setting [3]) was 22.8 ± 1.7%; with MCF7 (setting [4]), 26 ± 1.8%; in the data set on hTERT-HMEC (setting [3]) it was 5.11 ± 0.22%; in the data set with hTERT-HMEC (setting [4]), 8.044 ± 0.08%.
